Assay [1] concerns the target T1, NaPi2b (Homo sapiens, UniProt O95436).
T1 construct: Napi2b antigen consisting of Napi2b-extracellular-loop2 expressed as Fc-fusion-6-His-tagged protein in Expi-HEK293 cells; Fc-fusion; 6-His; made in house; host or cells: Expi-HEK293 cells
T1 sequence (O95436 whole entry, looked up): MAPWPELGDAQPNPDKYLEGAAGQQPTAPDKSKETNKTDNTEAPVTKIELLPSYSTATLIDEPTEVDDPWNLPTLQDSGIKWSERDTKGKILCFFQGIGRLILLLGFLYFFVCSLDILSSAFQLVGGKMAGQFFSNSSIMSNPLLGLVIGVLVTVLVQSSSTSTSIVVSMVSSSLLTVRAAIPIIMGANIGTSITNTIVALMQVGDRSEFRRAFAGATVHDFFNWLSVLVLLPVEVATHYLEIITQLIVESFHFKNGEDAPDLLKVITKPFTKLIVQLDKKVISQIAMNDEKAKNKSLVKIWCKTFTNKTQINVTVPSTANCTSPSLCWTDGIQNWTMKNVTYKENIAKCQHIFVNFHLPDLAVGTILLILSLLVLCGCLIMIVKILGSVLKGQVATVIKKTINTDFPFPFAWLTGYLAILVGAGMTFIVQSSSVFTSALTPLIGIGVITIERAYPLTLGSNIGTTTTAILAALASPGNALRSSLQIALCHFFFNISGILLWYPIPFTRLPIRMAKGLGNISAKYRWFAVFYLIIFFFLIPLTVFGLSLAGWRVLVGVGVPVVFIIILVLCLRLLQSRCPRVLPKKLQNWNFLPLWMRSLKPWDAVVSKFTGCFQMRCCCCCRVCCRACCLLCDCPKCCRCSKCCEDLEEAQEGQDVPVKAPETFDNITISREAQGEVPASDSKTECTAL
Put plainly: Binding KD (nmol/L) | ELISA. From the text:
Table printed on a drawing sheet, FIG. 20
Head of the field: Binding KD (nmol/L) | ELISA
First copying reader's note: Decimal commas and decimal points are mixed as printed; some columns (ADC retention time, cytotoxicity) refer to the antibody-drug conjugates made from the listed mAbs.
Where the first naming reader finds the target: passage: An antibody drug conjugate (ADC) comprising the anti-NaPi2b antibody according to any one of the preceding items.
In general terms: An ELISA detects its analyte on a solid surface through an enzyme-linked reagent.

Assay [2] concerns OVCAR-3 and HCC-78. Put plainly: Calcein release-based ADCC assay with human NK cells. It counts as cell-based. Conditions: 15 μg/ml, NK:target 4:1, 4 h. The method, then:
• and AV25-P5(PEG24)-VC-PAB-Exatecan DAR8 vs the isotypes and an anti-MHC-I positive control (Invivogen) was analyzed, which is mediated after interaction with FcγRIIIa (CD16). For the Calcein release-based antibody-dependent cellular cytotoxicity (ADCC) assay, peripheral blood mononuclear cells (PBMCs) were isolated from healthy donor buffy coats (purchased from DONAS GmbH) using LeucoSep tubes (Greiner Bio-One) and Histopaque®-1077 (density 1.077 g/ml, Merck) density gradient according to standard protocols. Afterwards, natural killer (NK) cells were MACS (magnetic cell separation)-sorted using human NK cell isolation kit (Miltenyi Biotec) by negative selection according to the manufacturer's instructions yielding untouched human primary NK cells. Napi2b-positive target cells OVCAR-3 and HCC-78 (both Napi2b^high) were stained with 16 μM Calcein AM (Thermo Fisher Scientific). 40.000 NK cells and 10.000 Calcein-stained target cells were incubated at a 4:1 ratio in the presence of 15 μg/ml antibodies or ADCs. Cells permeabilized with 2.5% Triton X 100 (Merck) served as a positive control for maximum Calcein release. After 4 h, supernatants were transferred to a flat black non-binding 96-well plate (Greiner Bio-One) and fluorescence was measured at 485/535 nM via the Infinite M200 Pro reader (Tecan). The percent specific killing was calculated by dividing the Calcein released by antibody-mediated killing minus background Calcein release (NKs+targets) from Calcein released by Triton X-permeabilized cells (maximum killing) minus background Calcein release (targets only). Graphs show means of n=2±SEM.
Co-cultures of healthy donor (HD)-derived NK cells and calcein-stained target-positive tumor cells (OVCAR-3 and HCC-78), in a 4:1 ratio, were incubated with 15 μg/ml of indicated antibodies or ADCs (anti-MHC-I antibody served as positive control). The percentage of specific killing was calculated by deviding the calcein released by antibody-mediated cell killing from calcein released by Triton X-permeabilized cells (maximum killing). Graphs show means of n=2±SEM.

In assay [3] the target is T2, purified recombinant human Napi2b antigen (Napi2b-extracellular-loop2 Fc-fusion-6-His) (Homo sapiens, UniProt O95436).
T2 construct: Napi2b antigen consisting of Napi2b-extracellular-loop2 expressed as Fc-fusion-6-His-tagged protein in Expi-HEK293 cells; Fc-fusion; 6-His; made in house; host or cells: Expi-HEK293 cells
T2 sequence (O95436 234-362 limits assumed): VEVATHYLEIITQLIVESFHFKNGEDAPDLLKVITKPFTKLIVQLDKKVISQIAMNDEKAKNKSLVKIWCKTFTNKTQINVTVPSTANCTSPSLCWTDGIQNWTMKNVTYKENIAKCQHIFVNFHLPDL
Put plainly: Binding to immobilized human NaPi2B evaluated by ELISA. The settings on record: one-site specific binding model, n=2. The method, then:
Binding of increasing concentrations of parental mAb and AV mAb clones to a purified recombinant immobilized human Napi2b antigen was tested in an ELISA setting.
To determine binding of parental and AV mAb clones to Napi2b antigen, flat-bottom surface-treated 96-well-plates (Nunclon, Thermo Fisher Scientific) were coated with 1 μg/mL purified recombinant human Napi2b antigen consisting of Napi2b-extracellular-loop2 expressed as Fc-fusion-6-His-tagged protein in Expi-HEK293 cells. After blocking with 2% bovine serum albumin (Carl Roth) in 1× PBS-Tween 20 (0.05%), increasing antibody concentrations (0.00015, 0.00046, 0.00137, 0.00412, 0.01235, 0.03704, 0.11111, 0.33333, 1.00000, 3.00000, 9.00000 μg/ml) were allowed to bind for 2 hr at room temperature. Bound antibodies were detected by incubation with HRP-conjugated goat anti-human kappa light chain secondary antibody (dilution 1:10000 in blocking solution) for 1 hr at RT. […] Absorbance at 450 nm was measured within 10 min of addition of acid using a microplate reader Infinite M1000 Pro (Tecan). Apparent dissociation constants (KD) were derived by non-linear regression using a one-site specific binding model using Prism 9 software. KD in μg/ml, 0.02209 parental mAb, 0.01581 AV15, 0.01494 AV18, 0,01248 AV21, 0,01060 AV25, 0.01238 AV29.

The Kd is the equilibrium constant for the complex coming apart. Higher therefore signals a looser complex.

B1: AV15: anti-NaPi2b antibody, light chain SEQ ID NO: 10, heavy chain SEQ ID NO: 11 (antibody)
heavy: EVQLVQSGAEVVKPGASVKMSCKASGYTFTGYNIHWVKQAPGQGLEWIGAIYPGNGDTSYKQKFRGRATLTADTSTSTVYMELSSLRSEDSAVYYCARGETARATFAYWGQGTLVTVSS[human IgG1 constant region with changes skipped]
light: DIQMTQSPSSLSASVGDRVTITCSASQDIGKFLNWYQQKPGKTVKVLIYYSSSLYSGVPSRFSGSGSGTDYTLTISSLQPEDFATYYCQQYSKVPLTFGQGTKLELKRTVAAPSVFIFPPSDEQLKSGTASVVCLLNNFYPREAKVQWKVDNALQSGNSQESVTEQDSKDSTYSLSSTLTLSKADYEKHKVYACEVTHQGLSSPVTKSFNRGEC
modifications: Heavy chain without a signal seqeunce; Light chain without a signal seqeunce
For the molecule B1, in assay [1], binding was characterised by a dissociation constant (Kd) of 105 nM. This lies in the sub-micromolar range.

B2: AV25 HC-wt: Fc-wildtype AV25 antibody, HC-wt SEQ ID NO: 61 (antibody)
heavy: EVQLVQSGAEVVKPGASVKMSCKASGYTFTGYIIHWVKQAPGQGLEWIGAIYPGSGATSYKQKFRGRATLTADTSTSTVYMELSSLRSEDSAVYYCARGETARATFAYWGQGTLVTVSS[human IgG1 constant region skipped]
light: DIQMTQSPSSLSASVGDRVTITCSASQDIGNFLNWYQQKPGKTVKVLIYYASSLYSGVPSRFSGSGSGTDYTLTISSLQPEDFATYYCQQYSKLPLTFGQGTKLELKRTVAAPSVFIFPPSDEQLKSGTASVVCLLNNFYPREAKVQWKVDNALQSGNSQESVTEQDSKDSTYSLSSTLTLSKADYEKHKVYACEVTHQGLSSPVTKSFNRGEC
B2: the “ADCC activity (specific killing)” value in assay [2] was “triggered high ADCC activity”.

B3: AV29: anti-NaPi2b antibody, light chain SEQ ID NO: 22, heavy chain SEQ ID NO: 23 (antibody)
heavy: EVQLVQSGAEVVKPGASVKMSCKASGYTFTGYNILWVKQAPGQGLEWIGAIYPGNGGTSYKQKFRGRATITADTSTSTVYMELSSLRSEDSAVYYCARGEIARATFAYWGQGTLVTVSS[human IgG1 constant region with changes skipped]
light: DIQMTQSPSSLSASVGDRVTITCSASQDIGNFLNWYQQKPGKTVKVLIYYASSLYSGVPSRFSGSGSGTDYTLTISSLQPEDFATYYCQQYSKLPLTFGQGTKLELKRTVAAPSVFIFPPSDEQLKSGTASVVCLLNNFYPREAKVQWKVDNALQSGNSQESVTEQDSKDSTYSLSSTLTLSKADYEKHKVYACEVTHQGLSSPVTKSFNRGEC
modifications: Heavy chain without a signal seqeunce; Light chain without a signal seqeunce
The molecule B3 came in with a Kd in assay [1] of 82 nM.

B4: AV21: anti-NaPi2b antibody, light chain SEQ ID NO: 18, heavy chain SEQ ID NO: 19 (antibody)
heavy: EVQLVQSGAEVVKPGASVKMSCKASGYTFTGQIIHWVKQAPGQGLEWIGAISPGNSGTSYKQKFRGRATLTADTSTSTVYMELSSLRSEDSAVYYCARGETARATFAYWGQGTLVTVSS[human IgG1 constant region with changes skipped]
light: DIQMTQSPSSLSASVGDRVTITCSASQDIGNFLNWYQQKPGKTVKVLIYYTSSLYSGVPSRFSGSGSGTDYTLTISSLQPEDFATYYCQQYSKLPLTFGQGTKLELKRTVAAPSVFIFPPSDEQLKSGTASVVCLLNNFYPREAKVQWKVDNALQSGNSQESVTEQDSKDSTYSLSSTLTLSKADYEKHKVYACEVTHQGLSSPVTKSFNRGEC
modifications: Heavy chain without a signal seqeunce; Light chain without a signal seqeunce
Consider B4, for which the “Apparent dissociation constants (KD)” value in assay [3] is 0,01248 μg/ml. The same molecule showed a Kd in assay [1] of 83 nM.

B5: AV18: anti-NaPi2b antibody, light chain SEQ ID NO: 14, heavy chain SEQ ID NO: 15 (antibody)
heavy: EVQLVQSGAEVVKPGASVKMSCKASGYTFTGYIIHWVKQAPGQGLEWIGAIYPGSGATSYKQKFRGRATLTADTSTSTVYMELSSLRSEDSAVYYCARGETARATFAYWGQGTLVTVSS[human IgG1 constant region with changes skipped]
light: DIQMTQSPSSLSASVGDRVTITCSASQDIGNFLNWYQQKPGKTVKVLIYYTSSLYSGVPSRFSGSGSGTDYTLTISSLQPEDFATYYCQQYSKLPLTFGQGTKLELKRTVAAPSVFIFPPSDEQLKSGTASVVCLLNNFYPREAKVQWKVDNALQSGNSQESVTEQDSKDSTYSLSSTLTLSKADYEKHKVYACEVTHQGLSSPVTKSFNRGEC
modifications: Heavy chain without a signal seqeunce; Light chain without a signal seqeunce
In assay [1], B5 registered a Kd of 99 nM.

These data come from patent US20240182596A1, “ANTI-NAPI2B ANTIBODIES AND ANTIBODY-DRUG-CONJUGATES BASED THEREON, THERAPEUTIC METHODS AND USES THEREOF” (Tubulis GmbH, priority 2022, published 2024).
